# Test results: the BET-seq Pho4 binding data (Le et al. 2018)
# The list shows a part of the results. These are noisy estimates, calculated here from bound and input reads.
# Molecular target: T1, Pho4 (S. cerevisiae) (UniProt P07270)
# T1 sequence: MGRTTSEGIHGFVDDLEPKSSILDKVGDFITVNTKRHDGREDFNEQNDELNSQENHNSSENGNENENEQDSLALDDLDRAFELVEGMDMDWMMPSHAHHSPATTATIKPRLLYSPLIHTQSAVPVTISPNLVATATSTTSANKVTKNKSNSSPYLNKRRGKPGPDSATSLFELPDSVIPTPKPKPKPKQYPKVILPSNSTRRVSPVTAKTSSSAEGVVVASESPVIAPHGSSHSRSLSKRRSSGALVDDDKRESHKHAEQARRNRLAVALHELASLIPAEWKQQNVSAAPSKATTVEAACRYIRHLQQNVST
# Assay: relative binding free energy (BET-seq); higher = weaker binding
# Conditions: reference: library average
row,Sequence,relative binding free energy
1,TTGCGCACGTGAGGCA,0.15 kcal/mol
2,ATTGTCACGTGTTGGC,0.24 kcal/mol
3,GTGAACACGTGGTGGG,0.08 kcal/mol
4,TAGACCACGTGGTGGG,-0.19 kcal/mol
5,TTTATCACGTGTTATA,0.12 kcal/mol
6,TCGGGCACGTGAAGTT,0.24 kcal/mol
7,GTTGTCACGTGCAGAG,0.04 kcal/mol
8,GTATACACGTGTGTTC,0.06 kcal/mol
9,CAGGGCACGTGTTGAT,-0.04 kcal/mol
10,ATGGGCACGTGGATTC,0.12 kcal/mol
11,CAGGACACGTGGAGGT,0.1 kcal/mol
12,TATTGCACGTGGTAGG,-0.01 kcal/mol
13,TTATGCACGTGAAGCT,0.21 kcal/mol
14,ACGGTCACGTGGGAAG,0.08 kcal/mol
15,TTTTACACGTGTGTGG,0.24 kcal/mol
16,GTGAGCACGTGTTAGC,0.06 kcal/mol
17,TATCGCACGTGGAATT,0.14 kcal/mol
18,ATGGTCACGTGAGAGA,0.3 kcal/mol
19,TTTTACACGTGGTAAG,0.18 kcal/mol
20,CGTTCCACGTGGGAGG,0.03 kcal/mol
21,AATGGCACGTGGGGCC,-0.2 kcal/mol
22,CAGTACACGTGATGGT,0.04 kcal/mol
23,TAGGACACGTGTTATT,-0.02 kcal/mol
24,GTACTCACGTGAGTGT,0.32 kcal/mol
25,TGAGCCACGTGGGCGG,-0.23 kcal/mol
26,ACGTTCACGTGAGTGG,0.32 kcal/mol

row,Sequence,relative binding free energy
1,TGATTCACGTGAAGTT,0.36 kcal/mol
2,TGGGGCACGTGACGGG,0.06 kcal/mol
3,GGTGGCACGTGTAGTA,-0.03 kcal/mol
4,AGGGTCACGTGTATTG,0.01 kcal/mol
5,TTGGTCACGTGCAGTG,0.08 kcal/mol
6,TTAACCACGTGGAGGG,-0.06 kcal/mol
7,GGCATCACGTGGCGTG,0.02 kcal/mol
8,ATGGACACGTGAGATG,0.27 kcal/mol
9,GGGTGCACGTGGCATA,-0.14 kcal/mol
10,AATGGCACGTGGTGCT,-0.2 kcal/mol
11,AATAACACGTGGAGTT,0.05 kcal/mol
12,GATCGCACGTGGGTGG,-0.17 kcal/mol
13,GTAATCACGTGTTTGG,0.19 kcal/mol
14,TCGAGCACGTGTTTGG,-0.11 kcal/mol
15,AAGGGCACGTGAGTGT,0.08 kcal/mol
16,TGGGGCACGTGTAACG,0.07 kcal/mol
17,ATGTTCACGTGCTAGT,0.16 kcal/mol
18,TGGGACACGTGTGAAG,0.19 kcal/mol
19,GCTAGCACGTGAGTGG,0 kcal/mol
20,TTCGGCACGTGTAGGG,-0.02 kcal/mol
21,TGGATCACGTGCTGGA,0.17 kcal/mol
22,ATTTCCACGTGTATTG,0.09 kcal/mol
23,CTGGACACGTGGTAGG,0.11 kcal/mol
24,ATGGGCACGTGAGTCG,0.16 kcal/mol
25,AGTACCACGTGTAGGT,-0.2 kcal/mol
26,TGTGACACGTGGGGCC,-0.27 kcal/mol

row,Sequence,relative binding free energy
1,TTGGTCACGTGTAGGC,0.15 kcal/mol
2,CGGAGCACGTGAATTG,0.22 kcal/mol
3,TGGTTCACGTGGTGCG,0.13 kcal/mol
4,TCGTGCACGTGAGTTG,0.26 kcal/mol
5,GAGGGCACGTGGTTTA,-0.07 kcal/mol
6,GTTGACACGTGATGGG,0.1 kcal/mol
7,TGAGGCACGTGACAGG,0.03 kcal/mol
8,TTTTTCACGTGGTGGT,0.27 kcal/mol
9,CAGTTCACGTGTGGTT,0.25 kcal/mol
10,TGTTCCACGTGTTATA,0.02 kcal/mol
11,GGGGGCACGTGTCAGC,-0.08 kcal/mol
12,GCGTTCACGTGTGGTT,0.28 kcal/mol
13,GCATGCACGTGGAGTG,-0.05 kcal/mol
14,CGGTGCACGTGTATAT,-0.09 kcal/mol
15,TTGGTCACGTGGTGGG,0.12 kcal/mol
16,TTAAGCACGTGTGATC,0.12 kcal/mol
17,TAGTGCACGTGGGTGG,-0.11 kcal/mol
18,CATGGCACGTGGTTCT,-0.11 kcal/mol
19,GTCTTCACGTGGGCGG,0.22 kcal/mol
20,AGTATCACGTGTGAAT,0.24 kcal/mol
21,GTTTGCACGTGCCATG,-0.04 kcal/mol
22,AAGTTCACGTGCGGGT,0.32 kcal/mol
23,GGTTACACGTGTGGTC,0.31 kcal/mol
24,TTTAACACGTGTTGGA,0.03 kcal/mol
25,TTTGTCACGTGTACGA,-0.02 kcal/mol
26,AGTGTCACGTGTAACT,0.05 kcal/mol

row,Sequence,relative binding free energy
1,GGCGGCACGTGTAAGT,0.11 kcal/mol
2,GTGAGCACGTGGGCTG,-0.25 kcal/mol
3,TCTTGCACGTGGGCAG,-0.12 kcal/mol
4,TGTTGCACGTGGTCAA,-0.03 kcal/mol
5,GTGGTCACGTGTGGGT,0.17 kcal/mol
6,GTGGTCACGTGGAGTT,0.12 kcal/mol
7,CAGTTCACGTGGCTTG,0.31 kcal/mol
8,CGTTTCACGTGGGGAG,0.15 kcal/mol
9,GCGGACACGTGATGTG,0.28 kcal/mol
10,GTGGACACGTGTGGGA,0.1 kcal/mol
11,CGGGGCACGTGGATTT,-0.05 kcal/mol
12,TTCTGCACGTGTTTTC,-0.01 kcal/mol
13,CTAATCACGTGGTATG,-0.01 kcal/mol
14,CGTGGCACGTGATCTG,0 kcal/mol
15,TGTCGCACGTGCTTGT,-0.2 kcal/mol
16,TTGTCCACGTGGGTCG,-0.03 kcal/mol
17,TTTGGCACGTGAAATA,0.3 kcal/mol
18,CTGGCCACGTGTGTGG,-0.08 kcal/mol
19,GCGTGCACGTGGGTAT,0.04 kcal/mol
20,CTTTGCACGTGGGTTT,-0.07 kcal/mol
21,GGTATCACGTGTGGAG,0.14 kcal/mol
22,GGCGACACGTGCGGGT,0.05 kcal/mol
23,GATGGCACGTGTGTGA,0 kcal/mol
24,TTGAACACGTGTCTGG,0.04 kcal/mol
25,TCTCTCACGTGGTTGT,0.29 kcal/mol
26,GGAGTCACGTGATGTT,0.24 kcal/mol

row,Sequence,relative binding free energy
1,AGCGTCACGTGGATGG,-0.01 kcal/mol
2,AGGGTCACGTGTACAT,-0.01 kcal/mol
3,ATGGTCACGTGCAGAT,0.09 kcal/mol
4,CGTGTCACGTGGTTAA,-0.08 kcal/mol
5,AGTTACACGTGGATAA,0.2 kcal/mol
6,GTGAGCACGTGGGGGC,-0.17 kcal/mol
7,TAGAGCACGTGCGGGT,-0.15 kcal/mol
8,AGTGACACGTGATTTT,0.15 kcal/mol
9,CGAGGCACGTGGGGGA,-0.29 kcal/mol
10,ATTTGCACGTGGGCAG,0.02 kcal/mol
11,ATGAGCACGTGGGAAT,-0.05 kcal/mol
12,GGGAACACGTGGCGGT,0.05 kcal/mol
13,GTTTCCACGTGGTCGT,0.04 kcal/mol
14,TTTTTCACGTGATGGG,0.41 kcal/mol
15,AAGATCACGTGGGGAA,0.02 kcal/mol
16,TGGGACACGTGCAGTG,-0.07 kcal/mol
17,TGTGTCACGTGTTGGT,0.06 kcal/mol
18,TGGGGCACGTGGGCTG,-0.18 kcal/mol
19,ATTTTCACGTGTACAT,0.06 kcal/mol
20,TTTTGCACGTGGTCCG,-0.19 kcal/mol
21,CTTGGCACGTGGTTGG,-0.13 kcal/mol
22,TGAAGCACGTGGATAT,-0.07 kcal/mol
23,GTTGACACGTGGCGCG,-0.02 kcal/mol
24,AGCGGCACGTGCGGTT,-0.15 kcal/mol
25,CTGGGCACGTGCTGTT,-0.14 kcal/mol
26,TATTTCACGTGCGTGG,0.24 kcal/mol

row,Sequence,relative binding free energy
1,TTAGGCACGTGTGCTG,-0.1 kcal/mol
2,TCACTCACGTGTGGGT,0.08 kcal/mol
3,AGAGGCACGTGGGGTT,-0.21 kcal/mol
4,TTGATCACGTGGTAAA,0.07 kcal/mol
5,GTCGGCACGTGGAGTG,0.01 kcal/mol
6,GCGCACACGTGGTGGT,-0.01 kcal/mol
7,GGTTTCACGTGGCTCG,0.26 kcal/mol
8,TCTTTCACGTGTTGGA,0.29 kcal/mol
9,TTAGGCACGTGATAAG,-0.07 kcal/mol
10,TATTACACGTGTATTT,-0.07 kcal/mol
11,GGTCACACGTGTTGGA,0.08 kcal/mol
12,GGGCGCACGTGGGTGA,-0.2 kcal/mol
13,CGGTACACGTGAGAGG,0.17 kcal/mol
14,TATCGCACGTGGGTCG,-0.18 kcal/mol
15,GTAGACACGTGCGGTT,-0.07 kcal/mol
16,AAAGTCACGTGATGAT,0.11 kcal/mol
17,CTAGTCACGTGGCGGG,0.07 kcal/mol
18,ATATTCACGTGTAGGC,0.19 kcal/mol
19,ATTTTCACGTGCGGGA,0.29 kcal/mol
20,GTGGGCACGTGGTTGG,-0.01 kcal/mol
21,AGGGGCACGTGAAAGC,0.05 kcal/mol
22,TGCTTCACGTGGTGGG,0.18 kcal/mol
23,TGACTCACGTGGTGTA,0.12 kcal/mol
24,TTTTGCACGTGGCATA,-0.13 kcal/mol
25,TGTGACACGTGGCCGT,-0.1 kcal/mol
26,TGATGCACGTGTGTTT,0.13 kcal/mol

row,Sequence,relative binding free energy
1,ACTGTCACGTGGGGAT,-0.17 kcal/mol
2,ATACTCACGTGGGCTT,0.12 kcal/mol
3,GGGGACACGTGGTGGT,-0.01 kcal/mol
4,GGTTTCACGTGGTTTG,0.27 kcal/mol
5,TTGATCACGTGATGAG,0.16 kcal/mol
6,TTACGCACGTGTTTGT,-0.11 kcal/mol
7,AATTCCACGTGGGGTA,-0.06 kcal/mol
8,TGTATCACGTGGTTGC,0.07 kcal/mol
9,TCCGTCACGTGGGGGC,-0.06 kcal/mol
10,TAGGGCACGTGCATTG,-0.13 kcal/mol
11,AGTTGCACGTGAACGG,0.01 kcal/mol
12,GGATGCACGTGGTGTG,-0.08 kcal/mol
13,ATTGTCACGTGGGAGC,-0.05 kcal/mol
14,TGGCCCACGTGGTGTG,-0.17 kcal/mol
15,CATCGCACGTGGTGTT,-0.26 kcal/mol
16,TGGTTCACGTGCTAGA,0.3 kcal/mol
17,AAAAGCACGTGGGGCT,-0.16 kcal/mol
18,TACTTCACGTGTGTCT,0.29 kcal/mol
19,ACTTACACGTGTGGGG,0.22 kcal/mol
20,TTTTCCACGTGGGTCT,-0.05 kcal/mol
21,GATAACACGTGTTGTT,0.01 kcal/mol
22,GGATTCACGTGGTCAT,0.25 kcal/mol
23,TGGTGCACGTGTGGGG,0.09 kcal/mol
24,ATGGACACGTGTGGCT,-0.09 kcal/mol
25,TATGCCACGTGTTGAT,0.01 kcal/mol
26,TGGAGCACGTGGTGAT,0.01 kcal/mol

row,Sequence,relative binding free energy
1,TGTTGCACGTGCTTCG,0.01 kcal/mol
2,CTCTACACGTGTGGGT,0.19 kcal/mol
3,ATGAGCACGTGGGGAA,-0.2 kcal/mol
4,TTTATCACGTGGGAAC,0.28 kcal/mol
5,AAGGTCACGTGTTTGA,0.14 kcal/mol
6,CGTGTCACGTGTTCTT,0.01 kcal/mol
7,CATGGCACGTGGTGTT,-0.14 kcal/mol
8,GCAATCACGTGATGGG,0.21 kcal/mol
9,TAGCGCACGTGGATAG,-0.04 kcal/mol
10,TCGTTCACGTGTTGGA,0.33 kcal/mol
11,GTAGGCACGTGTGCAG,-0.09 kcal/mol
12,TAAGGCACGTGGTTTA,-0.13 kcal/mol
13,TAGAGCACGTGTAGGT,-0.14 kcal/mol
14,GTAATCACGTGTGGCT,0.23 kcal/mol
15,TGCAGCACGTGGTTGT,-0.16 kcal/mol
16,ATTTCCACGTGGGAGT,0.09 kcal/mol
17,ACGGTCACGTGTGTTT,0.09 kcal/mol
18,GGTGTCACGTGTTGGA,0.19 kcal/mol
19,GTGGGCACGTGTAGAA,0.06 kcal/mol
20,TAAGGCACGTGTATAT,-0.11 kcal/mol
21,CGCTTCACGTGGGTGG,0.02 kcal/mol
22,TTTCTCACGTGTTGGT,0.2 kcal/mol
23,CGTGACACGTGAGAGT,0.22 kcal/mol
24,CGGTGCACGTGGCATG,-0.13 kcal/mol
25,TTGGTCACGTGTGCTC,0.16 kcal/mol
26,TTAAACACGTGTTATG,0.1 kcal/mol

row,Sequence,relative binding free energy
1,TTCTACACGTGATGTA,0.2 kcal/mol
2,ATATGCACGTGAAAGG,0.24 kcal/mol
3,ATTGGCACGTGTTATT,-0.06 kcal/mol
4,TCTGGCACGTGATGTG,0.07 kcal/mol
5,TGGTACACGTGAGGGT,0.27 kcal/mol
6,ATATACACGTGTTCGG,-0.03 kcal/mol
7,GTCGTCACGTGATGGT,0.35 kcal/mol
8,ATTGGCACGTGCTGGC,-0.18 kcal/mol
9,GTTGCCACGTGCGTTG,-0.18 kcal/mol
10,TAAATCACGTGGTATA,0.1 kcal/mol
11,ATTGTCACGTGTTGGT,0.13 kcal/mol
12,GGGTTCACGTGTCGGG,0.46 kcal/mol
13,CGTGGCACGTGTATGC,-0.03 kcal/mol
14,TGCATCACGTGGGGTG,0 kcal/mol
15,ATGGGCACGTGGCTGG,-0.12 kcal/mol
16,TGGTTCACGTGCTAAA,0.34 kcal/mol
17,AGGGGCACGTGGAGTA,-0.15 kcal/mol
18,TCGAGCACGTGGGCGG,-0.15 kcal/mol
19,TGGGCCACGTGGCAGG,-0.22 kcal/mol
20,CTGAGCACGTGGTTGA,-0.17 kcal/mol
21,CTTGACACGTGGGTGT,-0.14 kcal/mol
22,AAAGGCACGTGTATGG,-0.1 kcal/mol
